# Source: the supplement of paper PMC3334620
# Over roughly 33,000 sequences, “E-score (-0.5 to 0.5)” has its median near -0.01; the highest 2% begin near 0.26. The list shows a part of the results.
# Target: Ste12 (UniProt P13574)
# Test: PBM E-score (8-mer binding enrichment) (E-score (-0.5 to 0.5)); higher = stronger / more preferred TF binding; most listed sequences are background and not binding sites
# Conditions: protein concentration: 200 nM; construct: GST-DNA-binding domain
# Outline: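 Universal all-10-mer Agilent arrays, double-stranded by primer extension on fresh or once-stripped slides, were probed with about 100-200 nM GST-tagged yeast transcription factors made by PURExpress. Fluorescent anti-GST detected bound protein, and masliner normalised the scans. E-scores from the Universal PBM Analysis Suite were given to each ungapped eight-base word pooled with its reverse complement.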
row,Sequence,PBM E-score
1,CTTATTTA,0.171
2,TAGGCCGA,-0.23
3,CTTGTCCA,-0.171
4,CAACAATC,0.161
5,CGTCCGTA,-0.0703
6,ACCTAGAT,-0.0236
7,CCCTCTAA,0.0388
8,CAACTCGC,0.146
9,ATAGCGAA,0.00796
10,GTCACAGA,0.0869
11,TGAGAGAA,0.0828
12,AGACGGTC,-0.116
13,CACGTACG,-0.0403
14,CAGTTATA,0.107
15,TAGTACCA,-0.0853
16,CGCTCGGA,0.0593
17,CCAAGTGG,-0.14
18,GTATTGCA,-0.157
19,TATATTCA,0.142
20,TCTGTGAA,0.0905
21,CCCGATAA,0.102
22,CAATAACG,-0.00073
23,AACCCCTC,0.0941
24,CCGTAGAC,-0.14
25,ACCTTCCT,-0.221

row,Sequence,PBM E-score
1,AGTTCCAC,-0.17
2,CAAAAAAA,0.352
3,CATCAGCG,0.00813
4,TATATGGA,0.0277
5,ACGTGTTC,-0.171
6,TACGCTAA,0.0905
7,AACCAGCC,-0.096
8,AGATTCAC,-0.0623
9,ATCCAAAC,0.047
10,CGGCGCGC,0.189
11,CAGCGTAG,-0.213
12,CATGTCGG,-0.0312
13,AAGGACCG,-0.0909
14,AGCGTCTC,-0.0609
15,GGCTCACA,-0.0236
16,GACACGTA,-0.0852
17,AGTCCTAG,-0.205
18,CCTCCGTA,-0.0604
19,GAGTATGC,-0.0663
20,CATTCAAG,0.01
21,CTACTTAA,-0.0354
22,CCTCCTGA,-0.105
23,CTCCGGTC,0.0119
24,GAATGGCC,-0.02
25,CAGTCGTC,-0.139

row,Sequence,PBM E-score
1,CATCGAGC,0.0532
2,CCGGGCAG,-0.0654
3,CAGCCGCG,0.00383
4,ATACAGTA,0.0955
5,CGGAGCCC,-0.104
6,AGAAGACA,-0.132
7,AGGAGAGC,-0.187
8,CTATAGCA,-0.108
9,AAGCGTTG,-0.0369
10,TATTTCCA,0.204
11,CGTGGTAC,-0.172
12,AAAAATGG,0.104
13,TCCATACA,0.119
14,ACCGTGAC,-0.134
15,ACTTGACC,-0.179
16,GACAACTA,-0.034
17,ATCGTAGC,-0.133
18,ACTCCGGC,0.0806
19,GATGCTAA,-0.0461
20,AAGCATAA,0.142
21,AATTTAGG,0.171
22,ACGGCGAC,-0.0664
23,AAAGAGAC,0.0261
24,ATGCATCG,-0.00895
25,AGTGTGAA,0.15

row,Sequence,PBM E-score
1,AGCGTCCG,-0.197
2,GAATGTTA,-0.0177
3,CCAGCAAC,0.0447
4,CGGATTTA,0.147
5,AGAGGCAT,0.0101
6,AGACATAC,-0.0989
7,GGACTTAC,-0.155
8,CCCGTCTC,0.043
9,TCCGAGGA,0.0237
10,CCGGTCCG,-0.0528
11,ATGAGATA,0.0495
12,GCGATCAA,-0.0064
13,GTCATGTA,0.0111
14,GCACCCAA,-0.041
15,ATGGGTTG,0.0565
16,CTAAGCAG,-0.17
17,TCAATCCA,0.0701
18,GATTGGCA,-0.00753
19,ACCAGCAA,0.167
20,CTACCCTC,-0.0776
21,ACGAGCCT,-0.0238
22,AGCTAGAC,-0.0972
23,CGTAGGCC,-0.167
24,GCCCTCGA,-0.216
25,AGCGTATC,-0.104

row,Sequence,PBM E-score
1,AGCCAAGA,0.104
2,AGTGTTTA,0.174
3,CAGCTGCC,-0.0729
4,CCCTTTGC,0.0802
5,ATTTCGGC,0.119
6,AGAGAAAA,0.0984
7,ATTGGACG,-0.0864
8,GTATATAA,0.195
9,AGTGACGG,0.0725
10,ACTTTGCC,0.00902
11,ACATATAT,0.156
12,ACGACGGC,-0.0913
13,CACTACGG,-0.00988
14,GTCAGTGA,0.124
15,TCCGATCA,0.0466
16,CATTCGCG,0.0139
17,CGACGGGC,0.0783
18,CTAACGGC,-0.0316
19,CAATTCAA,-0.0136
20,ACCTTAAT,-0.0247
21,AATCGGGC,0.0955
22,CAAGCATG,-0.09
23,GGATTGCC,-0.113
24,ATTTAAAT,0.327
25,ATGACTCG,-0.0623

row,Sequence,PBM E-score
1,ACACGAGC,-0.0613
2,AGATAAAG,0.0953
3,ACAATCCA,0.0824
4,AACTTAGC,-0.0978
5,GGCTTAGA,-0.0335
6,AACTCCAG,-0.172
7,CATTCCAC,0.00027
8,CTGCTCAA,-0.189
9,AACCATAG,0.0363
10,ACTGTGAC,0.13
11,GGCAAGCA,-0.13
12,CCGCGATC,-0.0477
13,CTGGGACC,-0.17
14,GCGGAAGC,-0.17
15,GCAATGAA,0.115
16,GTGATAGA,0.00724
17,AGTTGGCA,-0.0511
18,ACTTCACT,0.0528
19,ATTTAAAG,0.275
20,AATAAGGA,0.0761
21,AAGGTCAT,-0.203
22,CGGTGCCC,-0.174
23,AATTGAGT,0.195
24,AAAAAAGT,0.233
25,CTGTAACA,0.268

row,Sequence,PBM E-score
1,ACTCTGTG,-0.109
2,CCACATCA,0.0896
3,ATGGATTC,0.186
4,AACCCCGG,-0.0682
5,ACCCCTGA,0.128
6,TCACGGCA,-0.0804
7,CCGAGGCG,-0.00873
8,ACTATCGG,-0.00489
9,CAATGTCA,0.0731
10,CTTCCGTA,0.0543
11,ACGTAATC,0.107
12,ACACACGT,-0.0424
13,AGCAAAAA,0.228
14,TGGACTAA,0.0901
15,TAACACGA,-0.0288
16,AGTCCTAA,-0.0755
17,GGATGACA,-0.0203
18,ATCCAAGG,-0.106
19,CTTAGTTA,0.0576
20,ACAGTCGG,-0.0489
21,GAGGTGTA,0.0333
22,CAAGGGTG,-0.102
23,GGAACGAA,0.18
24,ACCCCTTA,-0.172
25,GTGTAAGA,0.058

row,Sequence,PBM E-score
1,CTAGAGAG,-0.288
2,CTACCGTC,-0.103
3,CTTCAGGC,-0.0906
4,CGCTAGAG,-0.304
5,AACGGATC,0.0513
6,CGATTAGC,0.00866
7,ATCATTCA,0.108
8,TAAGGTAA,0.138
9,GCTGCAGC,0.134
10,GCGGATTA,0.0582
11,ACTTTGCT,-0.169
12,CGGGTTAC,0.0422
13,GAGAGAGA,-0.0897
14,CGTCATAC,0.111
15,AATTCGGC,-0.054
16,GCCTTTAA,0.0888
17,CTGCGCGA,-0.0987
18,ATATGTGG,0.0175
19,AGACAACT,-0.0623
20,GCTTCGAA,-0.0707
21,GGTAAACA,0.28
22,AGCTGAAC,-0.288
23,AAATCTGG,0.21
24,AAGGGGGC,-0.0414
25,AGTGAAGC,-0.055

row,Sequence,PBM E-score
1,ATGGGGAA,0.0391
2,GTGATCAC,0.0151
3,AATCGACC,-0.0437
4,AGTTCCCC,-0.00638
5,AAGTAAGG,0.0451
6,AAAGCATC,0.0596
7,TACTCGAA,0.0179
8,CCTGCATA,-0.143
9,CCCAGTAC,-0.237
10,AGGACTTA,-0.242
11,AATGGGTA,0.076
12,GCCCCTCC,0.445
13,CGCGGATC,-0.0673
14,CGCACAGC,-0.165
15,AACGGTAT,-0.0208
16,CGAGTGAC,-0.00135
17,CCCGCGTC,0.119
18,GAGTAGCC,-0.0669
19,TCCTTTAA,0.0668
